Reference: article PMC9508122
These are yes or no findings as the source states them, for the method shown. Binding seen in cells or lysates may run through a third protein. Some entries that bind do so weakly or less than the wild type. For some assays here: Tags and fused reporters may be left off the sequences shown.

By UniProt entry, the sequences of proteins in these tests, tags left out.
UniProt P40763: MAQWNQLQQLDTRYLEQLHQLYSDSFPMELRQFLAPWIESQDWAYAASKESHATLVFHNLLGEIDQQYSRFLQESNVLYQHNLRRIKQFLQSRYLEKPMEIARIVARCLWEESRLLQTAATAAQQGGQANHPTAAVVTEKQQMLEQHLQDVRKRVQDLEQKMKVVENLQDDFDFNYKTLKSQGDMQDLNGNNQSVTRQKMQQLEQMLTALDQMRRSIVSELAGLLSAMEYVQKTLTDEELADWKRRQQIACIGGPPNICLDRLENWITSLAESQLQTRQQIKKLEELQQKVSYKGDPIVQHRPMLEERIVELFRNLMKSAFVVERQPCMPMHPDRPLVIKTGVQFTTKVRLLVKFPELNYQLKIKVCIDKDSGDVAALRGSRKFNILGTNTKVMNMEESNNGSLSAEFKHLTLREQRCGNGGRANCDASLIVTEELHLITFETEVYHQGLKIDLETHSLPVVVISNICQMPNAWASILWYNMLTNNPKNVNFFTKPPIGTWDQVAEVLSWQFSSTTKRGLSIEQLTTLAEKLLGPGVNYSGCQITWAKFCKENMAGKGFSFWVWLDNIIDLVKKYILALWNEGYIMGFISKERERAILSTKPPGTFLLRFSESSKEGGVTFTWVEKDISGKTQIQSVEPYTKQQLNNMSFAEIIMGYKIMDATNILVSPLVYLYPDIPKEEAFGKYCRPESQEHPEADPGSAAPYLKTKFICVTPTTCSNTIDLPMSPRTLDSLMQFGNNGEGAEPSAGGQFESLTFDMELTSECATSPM
UniProt Q99873: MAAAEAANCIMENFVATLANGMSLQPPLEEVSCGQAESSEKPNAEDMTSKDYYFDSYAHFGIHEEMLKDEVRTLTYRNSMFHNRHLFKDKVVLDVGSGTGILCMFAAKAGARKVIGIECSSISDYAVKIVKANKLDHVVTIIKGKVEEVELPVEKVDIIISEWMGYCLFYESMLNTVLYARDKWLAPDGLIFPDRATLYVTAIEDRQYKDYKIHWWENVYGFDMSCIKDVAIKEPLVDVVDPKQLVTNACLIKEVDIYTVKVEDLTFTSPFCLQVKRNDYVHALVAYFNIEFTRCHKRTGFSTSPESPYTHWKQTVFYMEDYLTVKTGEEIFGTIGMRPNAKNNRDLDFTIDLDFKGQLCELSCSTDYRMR

Key:
[1] = molecular target: T1, TIPE1-Flag, full-length TIPE1 (FL) (UniProt Q8WVP5); assay: co-IP; HEK-293T cells transfected with Flag-tagged TIPE1 (or its truncations) and HA-tagged PRMT1 (full length or truncations), harvested 24 h after transfection; lysates with anti-HA or anti-Flag antibody, protein G agarose; western blot
T1 sequence: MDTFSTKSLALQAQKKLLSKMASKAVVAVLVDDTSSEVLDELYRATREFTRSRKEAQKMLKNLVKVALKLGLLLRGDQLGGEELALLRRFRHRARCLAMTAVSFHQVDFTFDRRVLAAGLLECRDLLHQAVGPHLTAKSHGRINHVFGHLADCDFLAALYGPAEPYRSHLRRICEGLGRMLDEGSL

[2] = molecular target: T2, TIPE1 M1 truncation (1-100aa) (UniProt Q8WVP5); assay: as above
T2 sequence: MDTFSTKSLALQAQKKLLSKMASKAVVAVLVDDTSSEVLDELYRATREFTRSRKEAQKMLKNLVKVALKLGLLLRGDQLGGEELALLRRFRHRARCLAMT

[3] = molecular target: T3, TIPE1 M2 truncation (101-186aa) (UniProt Q8WVP5); assay: as above
T3 sequence: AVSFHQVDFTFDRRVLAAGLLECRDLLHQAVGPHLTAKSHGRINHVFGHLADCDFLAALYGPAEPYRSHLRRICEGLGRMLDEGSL

[4] = molecular target: T1, TIPE1-Flag, full-length TIPE1 (FL); assay: proximity ligation; Duolink in situ PLA in MNNG/HOS Cl #5 cells overexpressing TIPE1-Flag and PRMT1-HA
STAT3-His = STAT3-His (UniProt P40763); assay: co-IP; HEK293T cells transfected with PRMT1-HA and STAT3-His together with increasing amount of TIPE1-Flag

- binding [1]: binds
- binding [2]: binds
- binding [3]: no binding
- binding [4]: binds
- binding (STAT3-His): binds
Substance: PRMT1-HA, full-length PRMT1 (from UniProt Q99873 1-371) (enzyme)
